Experimental data published in PubChem BioAssay AID588342 (National Center for Advancing Translational Sciences (NCATS), 2011).
About 25,000 (6.9%) of roughly 360,000 compounds were called active. The inconclusive results got no clear call from the source; some entries with a clear call stand among them for comparison. Calls follow the shape of the dose curve; as a rule, active = well fitted inhibition curve with a large enough effect; inconclusive = small, poorly fitted or top-dose-only effect; inactive = flat fitted curve, though single readings scatter. Potencies of inconclusive entries are doubtful fits and often do not repeat.
Also: nearly all actives have a fitted effect of over 55% in size.
Potency is read from the fitted curve at half-maximal effect; tags tell the direction and shape of the fitted curve.

The molecules below were run against Luciferin 4-monooxygenase (Photinus pyralis) (UniProt P08659) (assay: qHTS profiling assay for firefly luciferase inhibitor/activator using purifed enzyme and Km concentrations of substrates (counterscreen for miR-21 project)). Conditions: purified FLuc, luminescence inhibition; series mostly up to 57.5 µM.
UniProt P08659, sequence (P08659 whole entry, looked up): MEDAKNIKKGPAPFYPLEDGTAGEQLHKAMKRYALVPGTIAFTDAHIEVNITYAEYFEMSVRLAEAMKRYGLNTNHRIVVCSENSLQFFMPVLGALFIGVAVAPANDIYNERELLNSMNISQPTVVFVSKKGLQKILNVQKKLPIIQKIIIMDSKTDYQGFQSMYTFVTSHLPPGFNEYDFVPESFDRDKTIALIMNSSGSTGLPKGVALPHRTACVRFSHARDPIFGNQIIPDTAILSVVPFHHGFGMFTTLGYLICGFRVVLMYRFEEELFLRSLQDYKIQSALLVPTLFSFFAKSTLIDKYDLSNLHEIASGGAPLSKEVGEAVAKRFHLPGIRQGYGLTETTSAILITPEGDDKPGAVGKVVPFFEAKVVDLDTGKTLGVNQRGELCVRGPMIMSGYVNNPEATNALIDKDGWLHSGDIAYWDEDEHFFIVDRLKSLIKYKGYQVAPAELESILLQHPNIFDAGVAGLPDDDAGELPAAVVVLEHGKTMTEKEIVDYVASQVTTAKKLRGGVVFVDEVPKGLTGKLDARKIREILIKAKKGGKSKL
Outline: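 Biochemical qHTS of compounds, final roughly 60 µM downward over six points, against 10 nM purified firefly luciferase using Km concentrations of substrates (10 uM D-luciferin, 10 uM ATP) in Tris acetate pH 7.5 buffer; luminescence output.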
`O=C(Nc1ccc(N2CCOCC2)cc1)c1cccc(S(=O)(=O)N2CCCC2)c1` was tested, and the Potency was inconclusive: 15.1 µM [inhibitor, partial curve, poor fit].
With `CN1c2ccccc2C(C)(C)C12CC(c1ccc(S(=O)(=O)N3CCCCC3)cc1)=NO2` (stereo not drawn) the Potency was “inactive”.
`CCc1ccc2nc(NC(=O)C3CCN(c4ncnc5sc(C)c(C)c45)CC3)sc2c1` was tested, and the Potency was inconclusive: 21.3 µM [inhibitor, partial curve].
In the case of `COc1cc(/C=C(/NC(=O)c2ccc(Cl)cc2Cl)C(=O)O)cc(OC)c1OC`, the Potency was “inactive”.
For `COc1ccc2c(c1OC)C(=O)N1N=C(c3ccccc3)CC21` (stereo not drawn), the Potency was inconclusive: 30.1 µM [inhibitor, single point].
With `O=C(c1cc(-c2cccs2)nc2ccccc12)N1CCN(CCO)CC1` the Potency was inconclusive: 8.49 µM [inhibitor, partial curve, poor fit].
In the case of `CCOC(=O)c1c(NC(=O)/C=C/C(=O)O)sc(C)c1-c1ccc(Cl)cc1`, the Potency was inconclusive: 37.9 µM [inhibitor, single point].
`O=C(Nc1ccc(F)c(Cl)c1)c1ccc2c(=O)n3c(nc2c1)CCCCC3` was tested, and the Potency was active: 6.75 µM.
`COc1ccc(-c2cc(C(=O)N3CCN(S(=O)(=O)c4ccccc4)CC3)[nH]n2)cc1` was tested, and the Potency was inconclusive: 21.3 µM [inhibitor, single point].
For `Cc1c(-c2ccccc2)c(=O)oc2cc(O)ccc12`, the Potency was inconclusive: 37.9 µM [inhibitor, single point].
In the case of `CCOc1ccc(OCCC(=O)OCC(=O)NCCc2ccc(S(N)(=O)=O)cc2)cc1`, the Potency was inconclusive: 21.3 µM [inhibitor, partial curve].
`CCCc1nc2c(c(=O)c3ccccc3n2C)c(=O)n1-c1ccc(F)cc1` was tested, and the Potency was inconclusive: 30.1 µM [inhibitor, partial curve, poor fit].
In the case of `COc1ccc(N2C(=O)c3ccccc3NC23CCC(C)CC3)cc1` (stereo not drawn), the Potency was inconclusive: 16.9 µM [inhibitor, partial curve, poor fit].
`O=S(=O)(Nc1ccc(-c2ccc(N3CCCC3)nn2)cc1)c1cccc(C(F)(F)F)c1` was tested, and the Potency was inconclusive: 16.9 µM [inhibitor, partial curve].
With `C/C(=N\NC(=O)c1cc(Br)ccc1O)c1cccs1` the Potency was active: 10.7 µM.
In the case of `CC(C)(C)c1ccc(C(=O)Nc2ccc(C(=O)N3CCCC3)cc2)cc1`, the Potency was inconclusive: 15.1 µM [inhibitor, partial curve].
In the case of `COc1ccc(CNC(=O)C2CC(c3cccc([N+](=O)[O-])c3)=NO2)cc1` (stereo not drawn), the Potency was inconclusive: 26.9 µM [inhibitor, single point].
For `Cc1ccccc1NCC(=O)N/N=C/c1c[nH]c2ccccc12`, the Potency was inconclusive: 30.1 µM [inhibitor, partial curve, poor fit].
For `CCOc1ccc(NC(=O)CN2CCN(CC(=O)Nc3ccccc3OCC)CC2)cc1`, the Potency was “inactive”.
For `CC1CCCCN1C(=O)CCc1nnc(Cc2c[nH]c3ccccc23)o1` (stereo not drawn), the Potency was “inactive”.
For `COCCn1c(=N)c(C(=O)NCCc2ccc(OC)cc2)cc2c(=O)n3cccc(C)c3nc21`, the Potency was “inactive”.
`NC(=S)N/N=C/c1ccc(-c2ccc([N+](=O)[O-])cc2)o1` was tested, and the Potency was inconclusive: 19 µM [inhibitor, partial curve, poor fit].
For `Cc1c(/C=N/O)sc2ccccc12`, the Potency was inconclusive: 37.9 µM [inhibitor, partial curve, poor fit].
In the case of `Cc1occc1C(=O)Nc1nnc(C(F)(F)F)s1`, the Potency was “inactive”.
With `COc1ccc(NC(=O)CSc2nc(-c3ccco3)nc3cc(=O)[nH]n23)cc1` the Potency was inconclusive: 23.9 µM [inhibitor, single point].
For `O=[N+]([O-])c1ccccc1-c1ccc(C(=S)N2CCN(c3ccccc3)CC2)o1`, the Potency was inconclusive: 26.9 µM [inhibitor, partial curve, poor fit].
For `COc1ccc(OC)c(NC(=O)N2CCc3ccccc3C2)c1`, the Potency was inconclusive: 21.3 µM [inhibitor, single point].
`Cc1cc(N/N=C/c2ccccc2Cl)nc(NCc2ccccc2)n1` was tested, and the Potency was active: 7.57 µM.
For `COc1cc(/C=C2\SC(=O)NC2=O)ccc1Oc1ccc([N+](=O)[O-])cn1`, the Potency was inconclusive: 42.6 µM [inhibitor, partial curve, poor fit].
`O=C(Nc1ccc(-c2nnn(CC(=O)N3CCN(C(=O)c4ccco4)CC3)n2)cc1)c1ccc(F)cc1` was tested, and the Potency was inconclusive: 26.9 µM [inhibitor, single point].
With `Cc1cccc(-n2ncc3c(NCc4ccccc4)ncnc32)c1` the Potency was “inactive”.
`CSc1ccc(NC(=O)NCc2ccccc2)cc1` was tested, and the Potency was inconclusive: 8.49 µM [inhibitor, partial curve].
`O=S1(=O)c2ccccc2N=NN1Cc1ccc(Cl)c(Cl)c1` was tested, and the Potency was inconclusive: 37.9 µM [inhibitor, partial curve, poor fit].
With `C=CCc1c(OC)ccc2c1c(S(=O)(=O)c1ccc(C)cc1)cn2COC` the Potency was “inactive”.
With `O=C(Nc1ccc2oc(-c3ccccc3F)nc2c1)c1ccc2c(c1)OCCO2` the Potency was active: 6.75 µM.
`Cc1cccc(NC(=O)c2sc3nc(-c4ccccc4)cn3c2C)n1` was tested, and the Potency was inconclusive: 26.9 µM [inhibitor, partial curve, poor fit].
With `CC(=O)c1cccc(NC(=O)c2ccc(Br)o2)c1` the Potency was inconclusive: 23.9 µM [inhibitor, partial curve].
`CC(C)c1ccc(NCCC(=O)c2cccs2)cc1` was tested, and the Potency was active: 12 µM.
With `O=C1CSC(=S)N1N=C1CCCCCC1` the Potency was “inactive”.
With `CCN1C(=O)/C(=C/c2ccc(C)s2)NC1=S` the Potency was inconclusive: 26.9 µM [inhibitor, single point].
`CCN(CC)CCOC(=O)c1ccc(NC(=O)CCCN2C(=O)S/C(=C/c3ccc(OC)cc3)C2=S)cc1` was tested, and the Potency was inconclusive: 13.5 µM [inhibitor, partial curve].
With `CCCCNC(=O)COc1ccccc1[N+](=O)[O-]` the Potency was inconclusive: 37.9 µM [inhibitor, single point].
With `CCOc1ccc(CCNC(=O)Cn2nc(CC)n3c(cc4sccc43)c2=O)cc1` the Potency was “inactive”.
